Reference: the antibiotic and cytotoxicity screens of Wong et al. (2023)
The other results are listed elsewhere or left out.

What was measured:
HSkMC = human skeletal muscle cells; experiment: cytotoxicity call (relative viability < 0.9); conditions: 10 µM
HepG2 = experiment: cytotoxicity call (relative viability < 0.9); conditions: 10 µM
S. aureus RN4220 = experiment: growth inhibition call (relative growth <= 0.2); conditions: 50 µM

SMILES | cytotoxicity call (HSkMC) | cytotoxicity call (HepG2) | growth inhibition call (S. aureus RN4220)
CC(=O)c1ccccc1OC[C@@H](O)CN(CCO)CCO | inactive | inactive | inactive
CC(C)NC(=O)N(C)C[C@@H]1OCCCC[C@H](C)Oc2ccc(NS(=O)(=O)c3cn(C)cn3)cc2C(=O)N([C@H](C)CO)C[C@@H]1C | inactive | inactive | inactive
O=C(NCCCN1CCOCC1)[C@H]1[C@H](CO)[C@H]2Cn3c(cccc3=O)[C@@H]1N2C(=O)C1CCCC1 | inactive | inactive | inactive
C[C@H](CO)N1C[C@H](C)[C@@H](CN(C)Cc2ccncc2)Oc2ccc(NC(=O)c3ccncc3)cc2CC1=O | inactive | inactive | inactive
CSc1nc2cc(Cl)c(Oc3cccc(Cl)c3Cl)cc2[nH]1 | inactive | inactive | inactive
CC(C)NC(=O)Nc1ccc2c(c1)C(=O)N([C@H](C)CO)C[C@@H](C)[C@@H](CN(C)Cc1ccc3c(c1)OCO3)O2 | inactive | inactive | inactive
C[C@@H]1CCCCO[C@@H](CN(C)S(=O)(=O)c2cn(C)cn2)[C@@H](C)CN([C@H](C)CO)C(=O)c2cc(NS(=O)(=O)c3ccccc3)ccc2O1 | inactive | inactive | inactive
CC(C)NC(=O)N1Cc2cc(C(=O)NC3CCCCC3)nc(-c3cccc(-c4cccnc4)c3)c2[C@@H]1CCO | inactive | inactive | inactive
CS(=O)(=O)Nc1ccc2c(c1)[C@H]1C[C@@H](CC(=O)NCc3ccc(-c4ccccc4)cc3)O[C@H](CO)[C@H]1O2 | inactive | inactive | inactive
Cc1noc(C)c1NC(=O)Nc1ccc2c(c1)CC(=O)N([C@@H](C)CO)C[C@@H](C)[C@H](CN(C)C(=O)Nc1cccc3ccccc13)O2 | inactive | active | inactive
C[C@@H]1CCCCO[C@H](CN(C)Cc2ccncc2)[C@H](C)CN([C@@H](C)CO)C(=O)c2cc(NC(=O)Nc3ccc(C(F)(F)F)cc3)ccc2O1 | inactive | active | inactive
COc1ccc(NC(=O)Nc2ccc3c(c2)CC(=O)N([C@H](C)CO)C[C@H](C)[C@H](CN(C)Cc2ccc(C(F)(F)F)cc2)O3)cc1 | inactive | active | inactive
C[C@@H]1CN([C@@H](C)CO)C(=O)Cc2cc(NC(=O)NC3CCCCC3)ccc2O[C@@H]1CN(C)C(=O)Nc1cccc2ccccc12 | inactive | inactive | inactive
CC(C)C[C@H]1NC(=O)[C@@H](C)NC(=O)[C@@]23C(=O)N[C@@H](Cc4ccccc4)[C@H]2[C@H](C)[C@@]2(C)O[C@H]2[C@@H]3/C=C/C/C=C\CNC1=O | inactive | inactive | inactive
CN(C)CC(=O)N[C@@H]1CC[C@@H](CCNC(=O)C2CCC2)O[C@H]1CO | inactive | inactive | inactive
COc1ccc(NC(=O)Nc2ccc3c(c2)C(=O)N([C@H](C)CO)C[C@@H](C)[C@@H](CN(C)CC2CCCCC2)OCCCC[C@@H](C)O3)cc1 | active | active | inactive
C[C@@H]1CN([C@@H](C)CO)C(=O)Cc2cc(NC(=O)CCCCCC(=O)Nc3ccccc3N)ccc2O[C@@H]1CN(C)C(=O)Nc1ccc(F)cc1 | inactive | inactive | inactive
C[C@@H]1CCCCO[C@@H](CN(C)C(=O)Nc2ccc(F)cc2)[C@H](C)CN([C@H](C)CO)C(=O)c2cc(NS(=O)(=O)c3ccccc3)ccc2O1 | inactive | inactive | inactive
C[C@H](CO)N1C[C@H](C)[C@H](CN(C)S(=O)(=O)c2cccc(C#N)c2)OCc2cn(nn2)CCCC1=O | inactive | inactive | inactive
CN1C(=O)c2cc(NC(=O)c3cnccn3)ccc2OC[C@H]2O[C@H](CC(=O)NCC3CCCCC3)CC[C@@H]21 | inactive | inactive | inactive
Cc1noc(C)c1NC(=O)Nc1ccc2c(c1)C(=O)N([C@H](C)CO)C[C@H](C)[C@@H](CN(C)S(=O)(=O)c1ccc(Cl)cc1)OCCCC[C@@H](C)O2 | inactive | inactive | inactive
CCSc1cccc2cccnc12 | inactive | inactive | inactive
COc1ccc(NC(=O)Nc2ccc3c(c2)C(=O)N([C@@H](C)CO)C[C@@H](C)[C@H](CN(C)CC2CCCCC2)O3)cc1 | inactive | inactive | inactive
CO[C@@H]1CN(C)C(=O)c2cc(NC(=O)Nc3ccccc3)ccc2OC[C@H](C)N(C(=O)CN(C)C)C[C@@H]1C | inactive | inactive | inactive
Cc1noc(C)c1S(=O)(=O)N(C)C[C@H]1Oc2ccc(NC(=O)Nc3ccccc3)cc2CC(=O)N([C@H](C)CO)C[C@H]1C | inactive | inactive | inactive
Cc1ccccc1N1C(=O)c2cc(S(N)(=O)=O)c(Cl)cc2NC1C (configuration not stated) | inactive | inactive | inactive
COc1ccc2c3c(n(c2c1)C)[C@H](CO)N(C[C@]13CN(C1)C(=O)C1CCOCC1)C(=O)C1CCOCC1 | inactive | inactive | inactive

SMILES | cytotoxicity call (HSkMC) | cytotoxicity call (HepG2) | growth inhibition call (S. aureus RN4220)
COCC#Cc1ccc2c(c1)O[C@@H](CN(C)Cc1ccccc1F)[C@H](C)CN([C@H](C)CO)S2(=O)=O | inactive | inactive | inactive
C[C@@H]1CCCCO[C@@H](CN(C)C(=O)Nc2ccc(C(F)(F)F)cc2)[C@@H](C)CN([C@H](C)CO)C(=O)c2cc(NS(=O)(=O)c3cccs3)ccc2O1 | inactive | inactive | inactive
C[C@H](CO)N1C[C@H](C)[C@H](CN(C)S(C)(=O)=O)Oc2ccc(NC(=O)Nc3ccc(C(F)(F)F)cc3)cc2C1=O | inactive | inactive | inactive
Cc1noc(C)c1NC(=O)Nc1ccc2c(c1)C(=O)N([C@@H](C)CO)C[C@@H](C)[C@H](CN(C)Cc1ccccc1)OCCCC[C@@H](C)O2 | inactive | inactive | inactive
CC(C)CC#Cc1cnc2c(c1)C(=O)N([C@@H](C)CO)C[C@@H](C)[C@@H](CN(C)S(=O)(=O)c1cn(C)cn1)O2 | inactive | inactive | inactive
CCS(=O)(=O)Nc1ccc2c(c1)C(=O)N(C)[C@@H]1CC[C@@H](CC(=O)NCCOC)O[C@H]1CO2 | inactive | inactive | inactive
C[C@@H]1CCCCO[C@@H](CN(C)C(=O)Nc2ccc(C(F)(F)F)cc2)[C@@H](C)CN([C@H](C)CO)C(=O)c2cc(NC(=O)Nc3ccc4c(c3)OCO4)ccc2O1 | inactive | inactive | inactive
COc1ccc(NC(=O)N(C)C[C@H]2Oc3ccc(NS(=O)(=O)c4cn(C)cn4)cc3C(=O)N([C@H](C)CO)C[C@@H]2C)cc1 | inactive | inactive | inactive
COc1ccc(NC(=O)N2C[C@@H](O)COC[C@H]3O[C@@H](CC(=O)NC4Cc5ccccc5C4)CC[C@@H]32)cc1 | inactive | inactive | inactive
CC(C)NC(=O)N(C)C[C@@H]1OCCCC[C@H](C)Oc2ccc(NC(=O)Nc3cccc4ccccc34)cc2C(=O)N([C@H](C)CO)C[C@@H]1C | inactive | inactive | inactive
O=C(CS)NCCCCCCNC(=O)[C@@H]1C[C@@H]2C(=O)NCC(=O)N2[C@@H]1c1cccc(OCCO)c1 | inactive | inactive | inactive
Cc1cccc(/C=C(\CCC(=O)O)c2nc3ccccc3s2)c1 | inactive | inactive | inactive
C[C@@H]1CCCCO[C@@H](CN(C)Cc2ccncc2)[C@H](C)CN([C@@H](C)CO)C(=O)c2cc(NC(=O)NC3CCCCC3)ccc2O1 | inactive | inactive | inactive
O=C(C[C@H]1CC[C@@H]2[C@H](COC[C@H](O)CN2S(=O)(=O)c2ccccc2Cl)O1)NCc1ccccc1Cl | inactive | inactive | inactive
NC[C@@](O)(c1ccc(Cl)cc1)c1ccc(-c2cn[nH]c2)cc1 | inactive | active | inactive
CN1CCN(C(=O)C[C@H]2CC[C@@H]3[C@H](COC[C@@H](O)CN3CC3CCCC3)O2)CC1 | inactive | inactive | inactive
C[C@@H]1CCCCO[C@H](CN(C)C(=O)Nc2ccccc2)[C@@H](C)CN([C@H](C)CO)C(=O)c2cc(NS(=O)(=O)c3ccc(F)cc3)ccc2O1 | inactive | inactive | inactive
COC(=O)C1C(O)CCC2CN3CCc4c([nH]c5ccccc45)C3CC21.Cl (configuration not stated) | inactive | inactive | inactive
O=C(C[C@@H]1CC[C@@H]2[C@H](COC[C@H](O)CN2C(=O)Nc2ccc3c(c2)OCO3)O1)N1CCN(c2ccccc2)CC1 | inactive | inactive | inactive
CN(C)CCN(Cc1cccs1)c1ccccn1.Cl | inactive | inactive | inactive
C[C@@H]1CN([C@H](C)CO)C(=O)c2cc(NC(=O)c3ccccc3)ccc2O[C@@H](C)CCCCO[C@@H]1CN(C)Cc1ccccc1 | inactive | inactive | inactive
Cc1noc(C)c1NC(=O)Nc1ccc2c(c1)C(=O)N([C@H](C)CO)C[C@@H](C)[C@@H](CN(C)C(=O)NC1CCCCC1)OCCCC[C@H](C)O2 | inactive | inactive | inactive
C[C@@H]1CN([C@H](C)CO)C(=O)Cc2cc(NS(=O)(=O)c3ccc(Cl)cc3)ccc2O[C@@H]1CN(C)Cc1ccc(Oc2ccccc2)cc1 | active | active | inactive
C[C@@H]1CCCCO[C@@H](CN(C)C(=O)Cc2ccccc2)[C@H](C)CN([C@@H](C)CO)C(=O)c2cc(NC(=O)Nc3ccc(C(F)(F)F)cc3)ccc2O1 | inactive | inactive | inactive
C[C@@H]1CCCCO[C@@H](CN(C)Cc2ccncc2)[C@@H](C)CN([C@@H](C)CO)C(=O)c2cc(NC(=O)Nc3cccc4ccccc34)ccc2O1 | inactive | inactive | inactive
COCC#Cc1ccc2c(c1)O[C@H](CN(C)C(=O)C1CCCCC1)[C@@H](C)CN([C@@H](C)CO)S2(=O)=O | inactive | inactive | inactive
COc1ccccc1CN(C)C[C@H]1OCc2ccccc2-c2c(n(C)c3ccccc23)C(=O)N([C@H](C)CO)C[C@H]1C | inactive | inactive | inactive
